Measurements taken from PubChem BioAssay (NCATS).
Inconclusive results, whose numbers are uncertain, are shown with a selection of clear calls. Potencies of inconclusive entries are left out as doubtful fits. Calls of active or inactive are those of the source. Calls follow the shape of the dose curve; as a rule, active = well fitted activation curve with a large enough effect; inconclusive = small, poorly fitted or top-dose-only effect; inactive = no such curve, though single readings can be large or run the other way.

biological target: Rap guanine nucleotide exchange factor 3 (Homo sapiens) (UniProt O95398); assay: Confirmatory qHTS for agonist of cAMP-regulated guanine nucleotide exchange factor 3 (EPAC1) (AID 1645881); conditions: EPAC1 Rap1B BODIPY-GDP exchange fluorescence; series mostly up to 154 µM; also: nearly all actives have a fitted effect of over 75% in size;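 as to activation: EPAC1 catalysed release of BODIPY-GDP from Rap1B seen as fluorescence loss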
Sequence of UniProt O95398 (O95398 whole entry, looked up): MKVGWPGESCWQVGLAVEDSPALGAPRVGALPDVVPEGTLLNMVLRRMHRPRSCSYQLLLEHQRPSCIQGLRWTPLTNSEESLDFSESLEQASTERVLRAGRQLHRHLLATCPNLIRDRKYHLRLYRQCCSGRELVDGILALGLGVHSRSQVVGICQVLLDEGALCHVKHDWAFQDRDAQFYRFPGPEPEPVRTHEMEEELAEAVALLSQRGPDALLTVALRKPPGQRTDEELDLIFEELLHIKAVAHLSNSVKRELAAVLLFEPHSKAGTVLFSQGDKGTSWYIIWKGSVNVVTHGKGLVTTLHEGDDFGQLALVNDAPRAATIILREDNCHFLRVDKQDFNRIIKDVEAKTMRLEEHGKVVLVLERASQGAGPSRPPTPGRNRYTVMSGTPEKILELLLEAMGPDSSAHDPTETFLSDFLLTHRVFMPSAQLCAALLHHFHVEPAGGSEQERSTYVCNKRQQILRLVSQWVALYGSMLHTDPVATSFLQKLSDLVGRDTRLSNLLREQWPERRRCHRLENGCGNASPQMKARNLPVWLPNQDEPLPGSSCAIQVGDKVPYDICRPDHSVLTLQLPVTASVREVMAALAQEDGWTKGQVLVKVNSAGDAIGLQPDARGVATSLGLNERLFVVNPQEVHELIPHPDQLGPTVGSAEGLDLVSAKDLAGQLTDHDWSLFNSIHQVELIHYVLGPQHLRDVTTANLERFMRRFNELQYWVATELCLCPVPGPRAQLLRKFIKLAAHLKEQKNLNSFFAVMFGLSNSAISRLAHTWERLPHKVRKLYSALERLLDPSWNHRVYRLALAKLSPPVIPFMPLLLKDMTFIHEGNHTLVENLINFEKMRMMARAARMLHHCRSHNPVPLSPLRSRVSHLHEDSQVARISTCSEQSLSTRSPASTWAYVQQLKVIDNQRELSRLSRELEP
Potency is read from the fitted curve at half-maximal effect; tags tell the direction and shape of the fitted curve.

SMILES	Potency
COC(=O)CSc1nc(C)cc(Oc2ccccc2)n1	inactive
CC(=O)NC(c1cccc(F)c1)c1nc(-c2ccccc2)cs1 (stereo not given)	inconclusive [activator, partial curve, poor fit]
CC(C)C[C@H](NC(=O)C1(c2ccccc2)CCN(C(=O)OC(C)(C)C)CC1)C(=O)N1CCC[C@H]1C(=O)O	inactive
COc1cccc(/C=N/Nc2ccc(S(=O)(=O)Nc3ccccc3C(=O)O)cc2[N+](=O)[O-])c1O	inconclusive [activator, partial curve, poor fit]
O=C(c1ccccc1)c1ccc(O)cc1O	inconclusive [activator, partial curve, poor fit]
COc1ccc(C(=O)c2ccc(Br)cc2)c(OC)c1OC	inconclusive [activator, partial curve, poor fit]
Cc1nc2ccccc2c(C)c1C(=O)c1ccccc1	inactive
CCC1(c2ccccc2)NC(=O)N(CC(=O)Nc2ccc(OC)nc2)C1=O (stereo not given)	inconclusive [activator, partial curve, poor fit]
Cc1ccc2c(c1C)OC(=O)CC2c1ccccc1 (stereo not given)	inconclusive [activator, partial curve, poor fit]
O=CN(CCN(C=O)CN1CCCCC1)CN1CCCCC1	inactive
CCOc1ccccc1NC(=O)CSc1nccn1-c1cccc(C)c1	inconclusive [activator, partial curve, poor fit]
COc1ccc(-c2nc(N/N=C(\C)c3ccc(O)cc3)c3ccccc3n2)cc1	inconclusive [activator, single point]
CCC(CC)C(=O)Nc1nc(-c2ccc3c(c2)CCN3C(=O)C2CC2)c(C)s1	inactive
CCOC(=O)c1cc(-c2ccc(/C=C3/C(=O)N(c4ccc(C(=O)O)cc4)N=C3C)o2)ccc1Cl	inconclusive [activator, single point]
O=[N+]([O-])c1ccc(NS(=O)(=O)c2ccc(Cl)c(Cl)c2)cc1	inactive
O=c1oc2c3c(ccc2c2ccccc12)OCN(Cc1cccc(Cl)c1)C3	inconclusive [activator, partial curve, poor fit]
CC1=C(C(=O)OC(C)C)C(c2ccc(C)o2)C(C(=O)OC(C)C)=C(C)N1	inactive
CCOc1ccc(NC(=O)CN(C)S(=O)(=O)c2ccc(-c3ccc(=O)[nH]n3)s2)cc1	active: 100 µM
CCCC(=O)N1c2nc(C(C)C)nn2C2(CCCCC2)[C@@H]2CCCC[C@@H]21	inactive
C/C(=C\c1ccco1)CN1CCN(Cc2ccc(C)o2)C(CCO)C1 (stereo not given)	inactive

SMILES	Potency
COc1ccc(CN(C(=O)c2cccs2)c2ccccc2)cc1	inconclusive [activator, partial curve, poor fit]
CC1(C)[C@@H](O)CC[C@]2(C)C3C(=O)C=C4C5C[C@@](C)(C(=O)O)CC[C@]5(C)CC[C@@]4(C)[C@]3(C)CC[C@@H]12 (stereo not given in full)	inactive
Cc1ccc(CN(C(=O)COc2cccc([N+](=O)[O-])c2)c2ccccn2)cc1	inactive
O=C(Nc1cccc([N+](=O)[O-])c1)c1ccc2c(c1)C(=O)N(c1ccccn1)C2=O	inactive
COc1cc(/C=C(\C#N)c2nc3ccccc3o2)ccc1O	inconclusive [activator, partial curve, poor fit]
COc1cc(CN2CCN(C(=O)CC(C)C)CC2)c([N+](=O)[O-])cc1OC	inactive
Cc1ccc(C2(C)NC(=O)N(CC(=O)Nc3ccccc3N3CCCCC3)C2=O)cc1 (stereo not given)	inactive
O=C(O)CC/C(=C\c1ccc(N2CCCC2)c([N+](=O)[O-])c1)c1nc2ccccc2s1	inconclusive [activator, single point]
COc1cc(/C=C2\SC(=Nc3ccccc3)N(CCc3c[nH]c4ccccc34)C2=O)ccc1OC(C)C(=O)O (stereo not given)	inconclusive [activator, partial curve, poor fit]
COc1ccc(N=Cc2sc(O)c3ccccc23)cc1	inconclusive [activator, partial curve, poor fit]
COc1cc(OC)cc(-c2cc3ccc(OC)cc3cn2)c1	inactive
CC1(Cc2cc(Cl)ccc2C(F)(F)F)C(=O)Nc2c(Cl)cccc21 (stereo not given)	inconclusive [activator, partial curve, poor fit]
COC(=O)COc1ccc(C(c2c(C)[nH][nH]c2=O)c2c(C)[nH][nH]c2=O)cc1	inactive
CC1(C(=O)NS(=O)(=O)c2ccc(Cl)s2)CCN1C(=O)c1ccc(C2CCCCC2)cc1 (stereo not given)	inactive
Cn1cc(S(=O)(=O)Nc2cccc(F)c2)c(=O)n(C)c1=O	inactive
CCN(C(=O)Cn1c(=O)oc2cc(Cl)ccc21)c1cccc(C(F)(F)F)c1	inactive
N#Cc1c(-c2cccs2)nc(SCC(=O)c2ccc(Br)cc2)[nH]c1=O	inconclusive [activator, partial curve, poor fit]
CN(CC(=O)Nc1ccc(Cl)c(C(F)(F)F)c1)C(=O)Cc1c[nH]c2ccccc12	inactive
CC(C)OC(=O)c1c(-c2ccccc2)c(-c2ccccc2)nn(C)c1=O	inactive
CCOC(=O)/C(C#N)=C/c1ccc(N2CCCCC2)cc1	active: 56.2 µM
